Starred links: 1 amine or outer side, 2 acyl side, 3 side chain; linkers in the order of their positions; H or OH if unused. Non-standard residues stand in square brackets, D forms with d. Residues, ends and D or L forms follow the SMILES beside them. ξ: configuration not given here. *: point of attachment. X6 = COc1ccc(S(=O)(=O)N[C@@H]2C[C@@H](C(=O)[*:2])N([*:1])C2)cc1; X20 = O=C(Nc1ccccc1)N[C@@H]1C[C@@H](C(=O)[*:2])N([*:1])C1; X5 = O=C(N[C@@H]1C[C@@H](C(=O)[*:2])N([*:1])C1)OCc1ccccc1; X11 = CC(C)(C)OC(=O)N1CCN([*:1])C(C(=O)[*:2])C1; Pro(4,4-SCH2CH2S) = O=C(O)[C@@H]1CC2(CN1)SCCS2; Oic = O=C(O)[C@@H]1C[C@@H]2CCCC[C@@H]2N1; X1 = CCC[C@H](N[*:1])C(=O)C(=O)[*:2]; X3 = CCCC(N[*:1])C(=O)C(=O)[*:2]; Chg = N[CH](C(=O)O)C1CCCCC1; hLeu = CC(C)CC[C@H](N)C(=O)O; X8 = CCCC(N*)C(=O)C(=O)OCC; ξE = NC(CCC(=O)O)C(=O)O; NH(propargyl) = C#CCN*; ξV = CC(C)C(N)C(=O)O; OtBu = CC(C)(C)O*; NHAllyl = C=CCN*; OAll = C=CCO*; NHPr = CCCN*

The experiment concerns the target Recombinant heterodimeric HCV NS3/NS4A protease (strain 1a) (Hepatitis C virus genotype 1a, UniProt P27958). Briefly: biochemical. Conditions: Ki* Range.
One may read the Ki as a measure of affinity in units of concentration, obtained from inhibition or displacement. For `C#CCNC(=O)C(=O)[C@H](CCC)NC(=O)[C@@H]1CCCN1C(=O)[C@@H](NC(=O)[C@@H](NC(=O)[C@H](CCC(=O)OC(C)(C)C)NC(=O)[C@H](CCC(=O)OC(C)(C)C)NC(C)=O)C(C)C)C(C)C` [Compound 13] (Ac-E(OtBu)E(OtBu)VVP[X1]-{NH(propargyl)}), the inhibition constant Ki lay in the range of 1000 to 10000 nM.

On to `CCC[C@H](NC(=O)[C@@H]1C[C@@H](NC(=O)Nc2ccccc2)CN1C(=O)[C@@H](NC(=O)[C@@H](NC(=O)[C@H](CCC(=O)O)NC(=O)[C@H](CCC(=O)O)NC(C)=O)C(C)C)C(C)C)C(=O)C(=O)NCC(=O)O` [Ac-EEVV-P(4t-UreaPh)-nV-(CO)-G-OH] (Ac-EEVV[X20][X1]G-OH), for which the Ki was 1 to 100 nM.

As to `C=CCOC(=O)CNC(=O)C(=O)C(CCC)NC(=O)C1CN(C(=O)OC(C)(C)C)CCN1C(=O)[C@@H](NC(=O)[C@@H](NC(=O)[C@H](CCC(=O)OC(C)(C)C)NC(=O)[C@H](CCC(=O)OC(C)(C)C)NC(C)=O)C(C)C)C(C)C` (stereo partly drawn) [Compound 11] (Ac-E(OtBu)E(OtBu)VV[X11][X3]G-OAll), the Ki lay in the range of 1000 to 10000 nM.

With `C=CCNC(=O)C(=O)C(CCC)NC(=O)[C@@H]1CCCN1C(=O)[C@H](CCC(C)C)NC(=O)[C@@H](NC(=O)[C@H](CCC(=O)OC(C)(C)C)NC(=O)[C@H](CCC(=O)OC(C)(C)C)NC(C)=O)C(C)C` (stereo partly drawn) [Compound 68] (Ac-E(OtBu)E(OtBu)V[hLeu]P[X3]-NHAllyl), the Ki is 1000 to 10000 nM.

For `C=CCNC(=O)C(=O)C(CCC)NC(=O)[C@@H]1CCCN1C(=O)[C@@H](NC(=O)[C@@H](NC(=O)[C@H](CCC(=O)O)NC(=O)[C@H](CCC(=O)O)NC(C)=O)C(C)C)C(C)C` (stereo partly drawn) [Compound 4] (Ac-EEVVP[X3]-NHAllyl), the Ki lay within 101 to 999 nM.

As for `C=CCNC(=O)C(=O)C(CCC)NC(=O)[C@@H]1CC2(CN1C(=O)C(NC(=O)C(NC(=O)C(CCC(=O)O)NC(=O)C(CCC(=O)O)NC(C)=O)C(C)C)C(C)C)SCCS2` (stereo partly drawn) [Compound 45] (Ac-[ξE][ξE][ξV][ξV][Pro(4,4-SCH2CH2S)][X3]-NHAllyl), the Ki fell in the range of 1 to 100 nM.

Turning to `CCCC(NC(=O)[C@H](CCSC)NC(=O)[C@@H](NC(=O)[C@@H](NC(=O)[C@H](CCC(=O)OC(C)(C)C)NC(=O)[C@H](CCC(=O)OC(C)(C)C)NC(C)=O)C(C)C)C(C)C)C(=O)C(=O)OCC` (stereo partly drawn) [Compound 20] (Ac-E(OtBu)E(OtBu)VVM-X8), the Ki fell in the range of 1000 to 10000 nM.

Turning to `CCC[C@H](NC(=O)[C@@H]1C[C@@H](NS(=O)(=O)c2ccc(OC)cc2)CN1C(=O)[C@@H](NC(=O)[C@@H](NC(=O)[C@H](CCC(=O)O)NC(=O)[C@H](CCC(=O)O)NC(C)=O)C(C)C)C(C)C)C(=O)C(=O)NCC(=O)O` [Ac-EEVV-P(4t-NHSO2Ph(4-OMe))-nV-(CO)-G-OH] (Ac-EEVV[X6][X1]G-OH), the Ki lay in the range of 1 to 100 nM.

As to `CCCNC(=O)C(=O)[C@H](CCC)NC(=O)[C@@H]1CCCN1C(=O)[C@@H](NC(=O)[C@@H](NC(=O)[C@H](CCC(=O)O)NC(=O)[C@H](CCC(=O)O)NC(C)=O)C(C)C)C(C)C` [Compound 8] (Ac-EEVVP[X1]-NHPr), the Ki was 101 to 999 nM.

Turning to `C=CCOC(=O)CNC(=O)C(=O)C(CCC)NC(=O)[C@@H]1C[C@@H](NC(=O)OCc2ccccc2)CN1C(=O)C(NC(=O)C(NC(=O)C(CCC(=O)OC(C)(C)C)NC(=O)C(CCC(=O)O)NC(C)=O)C(C)C)C(C)C` (stereo partly drawn) [Compound 37] (Ac-[ξE][ξE](OtBu)[ξV][ξV][X5][X3]G-OAll), the Ki lay in the range of 101 to 999 nM.

Take `CCC[C@H](NC(=O)[C@@H]1CCCN1C(=O)[C@@H](NC(=O)[C@@H](NC(=O)[C@H](CCC(=O)O)NC(=O)[C@H](CCC(=O)O)NC(C)=O)C(C)C)C(C)C)C(=O)C(=O)N[C@@H](CO)C(=O)O` [Compound 28] (Ac-EEVVP[X1]S-OH): the Ki is 1000 to 10000 nM.

In the case of `CCC[C@H](NC(=O)[C@@H]1CCCN1C(=O)[C@H](CCC(N)=O)NC(=O)[C@@H](NC(=O)[C@H](CCC(=O)O)NC(=O)[C@H](CCC(=O)O)NC(C)=O)C(C)C)C(=O)C(=O)NCC(=O)O` [Ac-EEVQP-nV-(CO)-G-OH] (Ac-EEVQP[X1]G-OH), the Ki fell in the range of 1000 to 10000 nM.

Regarding `C=CCOC(=O)CNC(=O)C(=O)C(CCC)NC(=O)[C@@H]1C[C@@H]2CCCC[C@@H]2N1C(=O)[C@@H](NC(=O)[C@@H](NC(=O)[C@H](CCC(=O)OC(C)(C)C)NC(=O)[C@H](CCC(=O)OC(C)(C)C)NC(C)=O)C(C)C)C1CCCCC1` (stereo partly drawn) [Compound 58] (Ac-E(OtBu)E(OtBu)V[Chg][Oic][X3]G-OAll), the Ki was 1000 to 10000 nM.

As to `CCCC(NC(=O)[C@@H]1CCCN1C(=O)[C@@H](NC(=O)[C@@H](NC(=O)[C@H](CCC(=O)OC(C)(C)C)NC(=O)[C@H](CCC(=O)OC(C)(C)C)NC(C)=O)C(C)C)C(C)C)C(=O)C(=O)NCC(=O)O` (stereo partly drawn) [Compound 56] (Ac-E(OtBu)E(OtBu)VVP[X3]G-OH), the Ki lay within 101 to 999 nM.

Turning to `C=CCNC(=O)C(=O)C(CCC)NC(=O)C1CCCN1C(=O)C(NC(=O)C(NC(=O)C(CCC(=O)OC(C)(C)C)NC(=O)C(CCC(=O)O)NC(C)=O)C(C)C)C1CCCCC1` (stereo not drawn) [Compound 36] (Ac-EE(OtBu)V[Chg]P[X3]-NHAllyl; configuration not given here), the Ki fell in the range of 1 to 100 nM.

For the origin of these results see patent publication US6800434B2, “Peptides as NS3-serine protease inhibitors of hepatitis C virus” (priority 2000, dated 2004).
